To fix the notation:
B1: OR4K15 (parent)
chain: GUUAACGGUCAUAGGCCAUGGAAACUAGGAGCACCAUUUCGCUGCCAGUGAAGAAAUGAACAAAGAAAAUCUGGGCCAGGCAGGCAUCAAAAGAAAUAGUCUUGCGCUCAACCAGAAAGUCUGUAAUCAUUUUAAGGGUA

The source gives no read counts; variants with many changes may rest on few reads.

Variants of B1 are the subject of the data set. The experiment in a line: self-cleavage, relative activity (ratio to wild type); higher = more cleavage; in vitro, sequencing; the parent is a self-cleaving ribozyme.
For the variant GUUAACGGCCAUAGGCCAUGGAAACUAGGAGCACCGUUCCGCUGCCAGUGAAGAAAUGAACAAAGAAAAUCUGGGCAAGGCAGGCAUCAAAAGAAAUAGUCUUGCGCUCAACCAGAAGGUCUGUAAUCAUUUUAAGGGUA [U9C A36G U39C C77A A118G], the self-cleavage was determined as 0.92. For GUUAACGGCCAUAGGCCAUGGAAACUAGGAGCCACAUUUCGCAGCCAGUGAAGAAAUGAACAAAGAAAAUCUGGGCCAGGCAGGCAUCAAAAGAAAUAGUCUUGCGCUCAACCAGAAAGUCUGUAAUCAUUUUAAGGGUA [U9C A33C C34A U43A], the self-cleavage is 0.13.

Take GUUAACGGCCAUAGGCCAUGGAAACUAGGAGCACCGUUUCGCUGCCAGUGAAGAAGUGAACAAAGAUAAUCUGGGCCAGGCAGGCAUCAAAAGAAAUAGUCUUGCACUCAACCAGAAAGUCUGUAAUCACUUUAAGGGUA [U9C A36G A56G A67U G106A U130C]: the self-cleavage amounted to 0.03. To GUUAACGGCCAUAGGCCAUGGAAACUAGGAGCACCAUUUCGCUGCCAGUGAAGGAAUGAACAAAGAAAAUCUGGGCCAGGCAGGCAUCAAAAGAAAUAGUCUUGCGCUCAACCAGAAGGUCUGUAAUCAUUUUAAGGGUA [U9C A54G A118G] belongs 0.42; to GUUAACGGCCAUAGGCCAUGGAAACUAGGAGCACCGUUUCGCUGCCAGUGAAGAAAUGAACAAAGAAAAUCUGGGCCAGGCAGGCAUCAAAAGAAAUAGUCUUGCGCUCAACCAGAAAGUCUGUAAUCAUUUUAAGGGUG [U9C A36G A140G], 1.49.

Turning to GUUAACGGCCAUAGGCCAUGGAAACUAGGAGCACCAUUUCGCUGCCAGUGAAGGAAUGAACAAAGAAAACCUGGGCCAGGCAGGCAUCAAGAGAAAUAGUCCUGCGCUCAACCAGAAAGUCUGUAAUCCUUUUAAGGGUA [U9C A54G U70C A91G U102C A129C], the self-cleavage came out at 0.48. As for GUUAACGGCCAUAGGCCAUGGAAACUAGGAGCACCAUUUCGCUGCCAGUGAGGAAAUGAACAAAGAAAAUCUGAGCCAGGCAGGCAUCAAAAGAAAUAGUCUUGCGCCCAACCAGAAAGCCCGUAUUCACUUUAAGGGUA [U9C A52G G74A U108C U120C U122C A126U U130C], the figure is 0.01; as for GUUAACGGCCAUAGGCCAUGGAAACUAGGAGCGCCAUUUCGCUGCCAGUGAAGAAAUGAACAAAGAAAAUCUGGGCCAGGCAGGCAUCAAAAGGAAUAGUCUUGCGCUCAACCAGAAAGUCUGUAAUCAUUUUAAGGGUA [U9C A33G A94G], 1.27. As to GUUAACGGCCAUAGGCCAUGGAAACUAGGAGCACCGUUUCGCUGCCAGUGAAGAAAUGAACAAAGAAGAUCUGGGCCAGGCAGGCAUCAAAAGAAAUAGUCUUGCGCUCAACCAGAAAGUCUGUAAUCAUUCUAAGGGUA [U9C A36G A68G U132C], the self-cleavage is 1.96.

Take GUUAACGGCCAUAGGCCAUGGAAACUAGGAGCACCGUUUCGCUGCCAGUGAAGAAAUGAACAAAGAAAAUCAGGGCCAGGCAGGCAUCAAGAGAAAUAGUCUUGCGCUCAACCAGAAAGUCUGUAAUCAUUUUAAGGGCA [U9C A36G U72A A91G U139C]: the self-cleavage worked out at 0.13. To GUUAACGGCCAUAGGCCAUGGAAACUAGGAGCACCAUUUCGCUGCCAGUGAAGGAAUGAACAAAGAAAAUCUGGGCCAGGCAGGCAUCAAAGGAAAUAGUCUUGCGCUCAACCAGAAAGUCUGUAAUCAUUUUAAGGGUA [U9C A54G A92G] belongs 1.63. Regarding GUUAACGGCCAUAGGCCAUGGAAACUAGGAGCACCAUUUCGCUGCCUGUGAAGAAAUGAACAAAGAAAAUCUGGGCCAGGCAGGCAUCAAAAGAAAUAGUCUUGCGCCCAACCAGAAGGUCUGUAAUCAUUUUAAGGGUA [U9C A47U U108C A118G], the self-cleavage came to 0. To GUUAACGGCCAUAGGCCAUGGAAACUAGGAGCACCAUUUCGCUGCCAGUGAAGAGAUGAACAAAGAAAAUCUGGGCCAGGCAGGCAUCAAAAGAAAUUGUCUUGCGCUCAACCAGAAAGUCUGUAAUCAUUUUAAGGGUA [U9C A55G A98U] belongs 0.95; to GUUAACGGCCAUAGGCCAUGGAAACUAGGAGCGCCAUUUCGCUGCCAGAGAAGAAAUGAACAAAGAAAAUCUGGGCCAGGCAGGCACCAAAAGAAAUAGUCUUGCGCUCAACCAGAGAGUCUGUAAUCAUUUUAAGGGUA [U9C A33G U49A U87C A117G], 1.38; to GUUAACGGCCAUAGGCCAUGGAAACUAGGAGCACCAUUUCGCUGCCAGUGUAGAAAUGAACAAAGAAAAUCUGGGCCAGCCAGGCAUCAAAAGAAAUAGUCUUGCGCUCAACCAGAAAGUCUGUAAUCAUUUUAAGGGUA [U9C A51U G80C], 0.14. To GUUAACGGCCAUAGGCCAUGGAAACUAGGAGCUCCAUUUCGCUGCCAGUGAGGAAAUGAACAAAGAAAAUCUGGGCCAGGCAGGCAUCAGAAGAAAUAGUCUUGCGCUCAACCAGAAAGUCUGUAAUCAUUUUAAGGGUA [U9C A33U A52G A90G] belongs 1.36; to GUUAACGGCCAUAGGCCAUGGAAACUAGGAGCACCAUUUCGCUGCCAGUGAGGAAAUGAACAAAGAAAAUCUGGGCCGGGCAGGCAUCAAAAGGAAUAGUCUUGCGCUCAACCAGAAAGUCUGUAAUCAUUUUAAGGGUA [U9C A52G A78G A94G], 0.35. To GUUAACGGCCAUAGGCCAUGGAAACUAGGAGCACCGUUUCGCUGCCAGUGAAGAAAUGAACAAAGAAAAUCUGGGCCAGGCAGGCAUCAAACGAAAUAGUCUUGCGCUCAACCAGAAGGUCUGUAAUCAUUUUAAGGGUA [U9C A36G A92C A118G] belongs 1.84; to GUUAACGGCCAUAGGCCAUGGAAACUAGGAGCGCCAUUUCGCUGCCAGUGAAGAAAUGAACAAAGAAAAUCUGGGCCAGGCAGGCACCAAAGGAAAUAGUCUCGCGCUCAACCAGAAAGUCUGUAAUCAUUUCAAGGGUA [U9C A33G U87C A92G U103C U133C], 0.34; to GUUAACGGCCAUAGGCCAUGGAAACUAGGUGCACCAUUUCGCUGCCAGUGAAGAAAUGAACAAAGAAAAUCUGGGCCAGGCAGGCAUCAAAAGAAAUAGCCUUGCGCCCAACCAGAAAGUCUGUAAUCAUUUUAAGGGUA [U9C A30U U100C U108C], 0.02. On to GUUAACGGCCAUAGGCCAUGGAAACUAGGAGCACCCUUUCGCUGCCAGUGAAGAAAUGAACAAAGAAAAUCUGGGCCAGGCAGGCAUCAAACGAAAUAGUCUUGCGCUCAACCAGAGAGUCUGAAAUCAUUUUAAGGGUA [U9C A36C A92C A117G U124A], for which the self-cleavage turned out to be 1.3.
